What was measured:
CTV-1 = assay: Cell cycle distribution by BrdU assay; conditions: cell percentages; CTV-1, 12-hour treatment at IC50, BrdU assay
CHK-1 and p-CHK-1 = assay: Western blots of CHK-1 and p-CHK-1 in CTV-1 cells; type: cell-based; conditions: CTV-1, at IC50 for 0, 8, 12, 16 hours

Compound	G0G1 (CTV-1)	G2M (CTV-1)	S (CTV-1)	SubG0 (CTV-1)	expression of CHK-1 and p-CHK-1 (CHK-1 and p-CHK-1)
O=C(CCCCCCC(=O)Nc1ccccc1)NO [SAHA, Suberoylanilide hydroxamic acid]	4.13 ± 1.0	11.5 ± 1.2	78.3 ± 6.8	2.0 ± 0.5	decreased
COc1cccc2c1C(=O)c1c(O)c3c(c(O)c1C2=O)C[C@@](O)(C(=O)CO)C[C@@H]3O[C@H]1C[C@H](N)[C@H](O)[C@H](C)O1 [Doxo, Doxorubicin]	19.4 ± 2.4	28.2 ± 3.5	49.0 ± 4.2	0.1 ± 0.04	increased with time

Reference: patent publication US10668093B2, “Method for prolonging the over survival of a cancer patient” (National Yang-Ming University, priority 2015, dated 2020)
